Where a name gives a salt, the structure may show the parent alone. Out of some 1,500 compounds screened, about 30 (2%) showed activity.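 How the source made its calls: active = robust z-score below -2; a few such results were not called.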 The list shows a part of the results.
These compounds were tested on optoTopBP1 Flp-In 293 T-REx (HEK293) cells (assay: light-induced TopBP1 condensate (nuclear foci) count, plate-normalised robust z-score vs non-control wells; higher = more TopBP1 condensates (negative = condensation inhibitor), active = hit call of the paper). Details: 10 µM; incubation time 2 h.

Row | Structure (SMILES) | light-induced TopBP1 condensate (z-score)
1 | CC(C)(C(=O)O)c1ccc(C(O)CCCN2CCC(C(O)(c3ccccc3)c3ccccc3)CC2)cc1 (configuration not stated) [Fexofenadine hydrochloride] | inactive: 0.896
2 | Cc1c(C)c2c(c(C)c1O)CCC(C)(COc1ccc(CC3SC(=O)NC3=O)cc1)O2 (configuration not stated) [Troglitazone] | inactive: -0.719
3 | COC(c1ccccc1)(c1ccccc1)[C@H](Oc1nc(C)cc(C)n1)C(=O)O [Ambrisentan] | inactive: 0.0185
4 | COC(=O)C1=C(C)NC(C)=C(C(=O)OCCN2CCN(C(c3ccccc3)c3ccccc3)CC2)C1c1cccc([N+](=O)[O-])c1 (configuration not stated) [Manidipine Dihydrochloride] | inactive: -0.172
5 | CC(=O)Nc1ccccc1 [Acetanilide] | inactive: -0.756
6 | CC(C(=O)O)c1ccc2c(c1)Cc1cccnc1O2 (configuration not stated) [Pranoprofen] | inactive: 1.25
7 | CSc1ccc2c(c1)C(N1CCN(C)CC1)Cc1ccccc1S2 (configuration not stated) [Methiothepin maleate] | inactive: -0.0722
8 | COC(=O)Nc1nc2cc(C(=O)c3ccccc3)ccc2[nH]1 [Mebendazole] | inactive: -1.07
9 | CC(C)c1ccc2oc3nc(N)c(C(=O)O)cc3c(=O)c2c1 [Amlexanox] | inactive: -0.968
10 | CC1(C)S[C@@H]2[C@H](NC(=O)[C@H](NC(=O)N3CCNC3=O)c3ccccc3)C(=O)N2[C@H]1C(=O)O [Azlocillin sodium salt] | inactive: 0.586
11 | Cc1cc2c(cc1S(N)(=O)=O)S(=O)(=O)CCC2 [Meticrane] | inactive: 1.16
12 | NCCNCCNCCNCCN [Tetraethylenepentamine pentahydrochloride] | inactive: 0.924
13 | CN1C(C)(C)CCCC1(C)C [Pempidine] | inactive: 1.62
14 | Cc1onc(-c2c(Cl)cccc2Cl)c1C(=O)N[C@@H]1C(=O)N2[C@@H]1SC(C)(C)[C@@H]2C(=O)O [Dicloxacillin sodium salt hydrate] | inactive: 0.0668
15 | CN(C)/N=N/c1[nH]cnc1C(N)=O [Dacarbazine] | inactive: 0.0424
16 | CC[N+](C)(C)Cc1ccccc1Br [Bretylium tosylate] | inactive: -0.232
17 | C[N+](C)(C)CCCCCC[N+](C)(C)C [Hexamethonium dibromide dihydrate] | inactive: -0.0606
18 | CC1CC(OC(=O)C(O)c2ccccc2)CC(C)(C)C1 (configuration not stated) [Cyclandelate] | inactive: 0.482
19 | O=C(O)c1cccnc1Nc1cccc(C(F)(F)F)c1 [Niflumic acid] | inactive: -0.811
20 | COc1ccc(C(Cl)=C(c2ccc(OC)cc2)c2ccc(OC)cc2)cc1 [Chlorotrianisene] | inactive: 0.497
21 | Cc1oncc1C(=O)Nc1ccc(C(F)(F)F)cc1 [Leflunomide] | inactive: 0.943
22 | CCOC(=O)c1c(N)sc2c1CCN(Cc1ccccc1)C2 [Tinoridine hydrochloride] | inactive: 0.308
23 | CCOC(=O)[C@H](CCc1ccccc1)N[C@@H](C)C(=O)N1Cc2ccccc2C[C@H]1C(=O)O [Quinapril hydrochloride] | inactive: 0.0394

Row | Structure (SMILES) | light-induced TopBP1 condensate (z-score)
24 | CC(CCc1ccccc1)NCC(O)c1ccc(O)c(C(N)=O)c1 (configuration not stated) [Labetalol hydrochloride] | inactive: -0.988
25 | Fc1ccc(C(c2ccc(F)cc2)N2CCN(C/C=C/c3ccccc3)CC2)cc1 [Flunarizine dihydrochloride] | inactive: -0.547
26 | Cc1ccc(Nc2c(F)cccc2Cl)c(CC(=O)O)c1 [Lumiracoxib] | inactive: 0.38
27 | CC(C)(CO)[C@@H](O)C(=O)NCCCC(=O)O [Hopantenate calcium] | inactive: 0.00401
28 | NC(N)=Nc1nc(CSCCN/C=N/S(=O)(=O)c2ccc(Br)cc2)cs1 [Ebrotidine] | inactive: -0.733
29 | CCCCC(=O)O[C@H]1CC[C@H]2[C@@H]3CCc4cc(O)ccc4[C@H]3CC[C@]12C [Estradiol Valerate] | inactive: 0.522
30 | N=C(N)c1ccc(OCCCCCOc2ccc(C(=N)N)cc2)cc1 [Pentamidine isethionate] | inactive: 0.291
31 | Cn1c(NCCN(CCO)CCCc2ccc([N+](=O)[O-])cc2)cc(=O)n(C)c1=O [Nifekalant] | inactive: -0.0816
32 | OCCOCCN1CCN(C2=Nc3ccccc3Sc3ccccc32)CC1 [Quetiapine hemifumarate] | inactive: 0.443
33 | CCC(=O)O[C@@H](O[P@](=O)(CCCCc1ccccc1)CC(=O)N1C[C@H](C2CCCCC2)C[C@H]1C(=O)O)C(C)C [Fosinopril] | inactive: -0.0752
34 | CC1(C)S[C@@H]2[C@H](NC(=O)[C@H](N)c3ccc(O)cc3)C(=O)N2[C@H]1C(=O)O [Amoxicillin] | inactive: 0.718
35 | Nc1nc(Cl)nc2c1ncn2[C@H]1C[C@H](O)[C@@H](CO)O1 [Cladribine] | inactive: -1.65
36 | CN[C@@H]1[C@H](O[C@H]2[C@H](O[C@H]3[C@H](O)[C@@H](O)[C@H](N=C(N)N)[C@@H](O)[C@@H]3N=C(N)N)O[C@@H](C)[C@]2(O)C=O)O[C@@H](CO)[C@H](O)[C@H]1O [Streptomycin sulfate] | inactive: -0.213
37 | CCCCCCC[N+](CC)(CC)CCCCc1ccc(Cl)cc1 [Clofilium tosylate] | inactive: -1.04
38 | CCOC(=O)C1=C[C@@H](OC(CC)CC)[C@H](NC(C)=O)[C@@H](N)C1 [Oseltamivir phosphate] | inactive: 1.27
39 | CNCCCC1c2ccccc2C=Cc2ccccc21 [Protriptyline hydrochloride] | active: -2.86
40 | C[C@]12CCC(=O)C=C1CC[C@@H]1[C@@H]2[C@@H](O)C[C@@]2(C)[C@H]1CC[C@]2(O)C(=O)CO [Hydrocortisone base] | inactive: 1.03
41 | Oc1ncnc2[nH]ncc12 [Allopurinol] | inactive: -0.323
42 | CC[N+]1(CC)CCC(=C(c2ccccc2)c2ccccc2)C1C (configuration not stated) [Prifinium Bromide] | inactive: 1.11
43 | Cc1onc(-c2ccccc2)c1-c1ccc(S(N)(=O)=O)cc1 [Valdecoxib] | inactive: -1.03
44 | CCCc1cc(=O)[nH]c(=S)[nH]1 [Propylthiouracil] | inactive: 0.311
45 | C[N+]1(CCCCC[N+]2(C)CCCC2)CCCC1 [Pentolinium bitartrate] | inactive: 0.307
46 | C[C@]12CC[C@@H]3c4ccc(O)cc4CC[C@H]3[C@@H]1CC[C@@H]2O [Estradiol-17 beta] | inactive: 1.04

Row | Structure (SMILES) | light-induced TopBP1 condensate (z-score)
47 | CCCN(CCC)S(=O)(=O)c1ccc(C(=O)O)cc1 [Probenecid] | inactive: 0.0454
48 | CCN(CC)C(=O)c1cccnc1 [Nikethamide] | inactive: -0.0769
49 | COc1ccc2[nH]c([S+]([O-])Cc3ncc(C)c(OC)c3C)nc2n1 (configuration not stated) [Tenatoprazole] | inactive: -0.653
50 | CN(C)CCOC(c1ccccc1)c1ccccc1 [Diphenhydramine hydrochloride] | inactive: 1.14
51 | CC(=O)[C@H]1CC[C@H]2[C@@H]3CCC4=CC(=O)CC[C@]4(C)[C@H]3CC[C@]12C [Progesterone] | inactive: -0.788
52 | NC(Cc1cc(I)c(Oc2cc(I)c(O)c(I)c2)c(I)c1)C(=O)O (configuration not stated) [Thyroxine (L)] | inactive: 0.348
53 | CN(C)CC/C=C1/c2ccccc2Sc2ccc(Cl)cc21 [Chlorprothixene hydrochloride] | inactive: -0.435
54 | N=C(N)NC(=O)Cc1c(Cl)cccc1Cl [Guanfacine hydrochloride] | inactive: 0.494
55 | O=C(O)Cc1ccccc1Oc1ccc(Cl)cc1Cl [Fenclofenac] | inactive: 1.07
56 | Nc1ccn([C@@H]2O[C@H](CO)[C@@H](O)C2(F)F)c(=O)n1 [Gemcitabine] | active: -2.33
57 | CN1C(=O)CC(c2ccccc2)C1=O (configuration not stated) [Phensuximide] | inactive: 0.398
58 | CN(C)CCN(Cc1ccccc1)c1ccccn1 [Tripelennamine hydrochloride] | inactive: -0.381
59 | CC1CNc2c(cccc2S(=O)(=O)N[C@@H](CCCNC(=N)N)C(=O)N2CC[C@@H](C)C[C@@H]2C(=O)O)C1 (some centres not stated) [Argatroban] | inactive: -0.152
60 | CC(=O)O[C@@]12CO[C@@H]1C[C@H](O)[C@@]1(C)C(=O)[C@H](O)C3=C(C)[C@@H](OC(=O)[C@H](O)[C@@H](NC(=O)OC(C)(C)C)c4ccccc4)C[C@@](O)([C@@H](OC(=O)c4ccccc4)[C@H]21)C3(C)C [Docetaxel] | inactive: -1.72
61 | Clc1ccc(CSC(Cn2ccnc2)c2ccc(Cl)cc2Cl)cc1 (configuration not stated) [Sulconazole nitrate] | inactive: -0.2
62 | CCCc1c2oc(C(=O)O)cc(=O)c2cc2c(=O)cc(C(=O)O)n(CC)c12 [Nedocromil sodium] | inactive: -0.37
63 | C#C[C@]1(OC(C)=O)CC[C@H]2[C@@H]3CCC4=CC(=NO)CC[C@@H]4[C@H]3CC[C@@]21CC (mixture of isomers) [Norgestimate] | inactive: 0.108
64 | CC(=O)Oc1ccc(C(=C2CCCCC2)c2ccc(OC(C)=O)cc2)cc1 [Cyclofenil] | inactive: -0.651
65 | CC(=O)O[C@]1(C(C)=O)CC[C@H]2[C@@H]3C=C(Cl)C4=CC(=O)[C@@H]5C[C@@H]5[C@]4(C)[C@H]3CC[C@@]21C [Cyproterone acetate] | inactive: 0.713
66 | Clc1ccc(CO/N=C(\Cn2ccnc2)c2ccc(Cl)cc2Cl)c(Cl)c1 [Oxiconazole Nitrate] | inactive: 1.32
67 | CCCSc1nc(N[C@@H]2C[C@H]2c2ccc(F)c(F)c2)c2nnn([C@@H]3C[C@H](OCCO)[C@@H](O)[C@H]3O)c2n1 [Ticagrelor] | inactive: -0.733
